From the BET-seq Pho4 binding data (Le et al. 2018)
Some of the results follow. Values were computed here from the reads of four pooled replicates and scatter widely.

What follows are sequences tested against T1, Pho4 (S. cerevisiae) (UniProt P07270) (assay: relative binding free energy (BET-seq); higher = weaker binding). Settings: reference: library average.
T1 sequence: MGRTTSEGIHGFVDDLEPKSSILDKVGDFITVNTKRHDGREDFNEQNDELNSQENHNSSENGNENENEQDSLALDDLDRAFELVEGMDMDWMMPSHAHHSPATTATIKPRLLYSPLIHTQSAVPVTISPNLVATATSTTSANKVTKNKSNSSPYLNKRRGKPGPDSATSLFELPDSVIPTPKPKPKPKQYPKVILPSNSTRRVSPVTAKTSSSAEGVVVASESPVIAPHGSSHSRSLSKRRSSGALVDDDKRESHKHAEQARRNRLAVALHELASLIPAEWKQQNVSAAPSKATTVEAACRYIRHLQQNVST

| Sequence | relative binding free energy [kcal/mol] |
| --- | --- |
| TTGTACACGTGCTTTT | 0.02 |
| TTCTACACGTGTTGAT | -0.02 |
| ATTCTCACGTGTTGTT | 0.27 |
| GTATTCACGTGATATG | 0.31 |
| GATGTCACGTGATCTT | 0.28 |
| CGTGGCACGTGAAGGA | 0.17 |
| TTAAGCACGTGGAGGT | -0.22 |
| AGGGCCACGTGTGGTA | -0.06 |
| TTATTCACGTGTTCCT | 0.37 |
| AGACTCACGTGTGGTG | 0.2 |
| GATGTCACGTGGTCCG | 0.18 |
| AAACGCACGTGGGGTG | -0.24 |
| CAGGTCACGTGTCGGG | 0.24 |
| GTGTCCACGTGGTGGC | 0.04 |
| TATTGCACGTGTGCAT | -0.02 |
| CATTTCACGTGATGGG | 0.34 |
| GGGACCACGTGTGGTA | -0.01 |
| ATATGCACGTGAGTAG | 0.18 |
| CGCGGCACGTGGGGTC | -0.25 |
| AGCAGCACGTGCGTGG | -0.11 |
| TAGACCACGTGAGGTG | 0.28 |
| CGTTTCACGTGGGATA | 0.14 |
| AGTCACACGTGGTGGT | 0.22 |
| TGGTGCACGTGCGACG | -0.07 |
| GTGGCCACGTGTTGCT | -0.04 |

| Sequence | relative binding free energy [kcal/mol] |
| --- | --- |
| CGGGGCACGTGTGGGA | -0.06 |
| AGTGACACGTGTCTGT | -0.03 |
| GTGGACACGTGAACGG | 0.18 |
| CGGGGCACGTGGAGAT | 0 |
| GGTCGCACGTGAGGCG | 0.29 |
| ATTGACACGTGGGATA | -0.15 |
| TGTTACACGTGTAGCA | -0.07 |
| TCGTGCACGTGTTATA | -0.09 |
| TTTGGCACGTGTGGAA | 0.09 |
| AAATGCACGTGCTTGT | 0.1 |
| GTGGGCACGTGGTGTC | -0.06 |
| AAAGTCACGTGTGAGG | 0.17 |
| AGTGGCACGTGGAGCC | -0.02 |
| TTTAACACGTGGGTCT | -0.18 |
| GTAGACACGTGGAGGG | 0.02 |
| TGGCTCACGTGTAGCT | 0.25 |
| TTCGTCACGTGTATTT | 0.2 |
| GTATTCACGTGCCGTG | 0.38 |
| AGAATCACGTGTGGTA | 0.12 |
| CGCGGCACGTGGTGAG | -0.22 |
| TGGATCACGTGAGGTG | 0.34 |
| TAAGTCACGTGTATTG | 0.11 |
| TAGGTCACGTGTCTGA | 0.08 |
| GTATGCACGTGTTTTA | -0.07 |
| GGCAGCACGTGTGTAG | -0.12 |

| Sequence | relative binding free energy [kcal/mol] |
| --- | --- |
| AAGGTCACGTGTTTTA | 0.12 |
| CTTAGCACGTGGTGGT | -0.16 |
| TGGGACACGTGATAGA | 0.03 |
| GGTGACACGTGTGAAA | 0.22 |
| TGATTCACGTGACGGG | 0.38 |
| GTTGGCACGTGGGCAT | -0.18 |
| TTTTACACGTGGACTA | 0.07 |
| GCGTTCACGTGTAGTG | 0.27 |
| GGGTGCACGTGGAAAG | 0.13 |
| TCATACACGTGTGTGG | 0.04 |
| GAGTTCACGTGAGTAG | 0.47 |
| GGCCGCACGTGAAGGG | 0.2 |
| AATATCACGTGGAAGG | 0.19 |
| CGATACACGTGGTGTA | -0.08 |
| GAACGCACGTGCGGTG | 0.03 |
| TAATTCACGTGATGAT | 0.23 |
| AGGTTCACGTGAAAGT | 0.31 |
| TGTATCACGTGTGTTG | 0.15 |
| TGGTACACGTGAGGAT | 0.38 |
| GTCGTCACGTGCGTTT | 0.09 |
| GATTTCACGTGCCTTT | 0.45 |
| AGTGGCACGTGTATTG | -0.01 |
| ATTAGCACGTGGGTTA | -0.17 |
| TGTTACACGTGGTTCA | 0.04 |
| GCGAGCACGTGGTGGG | -0.2 |

| Sequence | relative binding free energy [kcal/mol] |
| --- | --- |
| CGTGTCACGTGTTTGA | 0.07 |
| GGAGTCACGTGTGGTA | 0.18 |
| AAGGGCACGTGAAGCG | 0.21 |
| ATGAGCACGTGGGAGA | -0.21 |
| AATTTCACGTGGTTGT | 0.25 |
| TGAGGCACGTGAGCTG | 0.07 |
| GGTTTCACGTGTTAGA | 0.3 |
| GGTCGCACGTGGATCG | 0.02 |
| TGCGGCACGTGTAAAT | 0.14 |
| GGGGGCACGTGTTACT | 0.06 |
| GAGATCACGTGGGGTA | 0.15 |
| GCTTGCACGTGAGGGT | 0.27 |
| TTATACACGTGTGTGG | 0.13 |
| CGGAGCACGTGGTAGT | -0.15 |
| TGTTTCACGTGCATGG | 0.15 |
| TTGGACACGTGAAGTT | 0.22 |
| TGAGGCACGTGAGGGG | 0.13 |
| AAAGTCACGTGTACGT | 0.22 |
| TGAAGCACGTGATTGG | 0.06 |
| TAGATCACGTGGGTAT | -0.05 |
| TGTTTCACGTGCGGCA | 0.27 |
| AGTATCACGTGTGAGA | 0.07 |
| GTATTCACGTGGAAGT | 0.33 |
| GGGAGCACGTGCAGTG | 0.07 |
| GGCTTCACGTGCGGTG | 0.28 |

| Sequence | relative binding free energy [kcal/mol] |
| --- | --- |
| TCTGTCACGTGTTATG | 0.03 |
| GAGTTCACGTGTTGGC | 0.23 |
| GTTTTCACGTGCCGGG | 0.34 |
| TCACTCACGTGTGGGA | 0.29 |
| AGAGACACGTGATGTG | 0.17 |
| GTGGTCACGTGTATGA | 0.17 |
| TGTCTCACGTGAGTAA | 0.52 |
| TGTTGCACGTGACTGA | -0.04 |
| AGTATCACGTGGCGTT | -0.03 |
| CATGGCACGTGATGTG | -0.16 |
| ATAGGCACGTGGAGGC | -0.08 |
| ATATGCACGTGTGCTG | -0.13 |
| CTATACACGTGTGTGG | 0.01 |
| AGCTTCACGTGATTGT | 0.22 |
| TGTTACACGTGCTGTA | -0.01 |
| GTAGTCACGTGGATTG | -0.01 |
| TCAGGCACGTGGAGGA | -0.08 |
| AAGTTCACGTGAGTGC | 0.45 |
| CGTTGCACGTGGGGAC | -0.19 |
| TTGTTCACGTGCGTAT | 0.23 |
| TTTATCACGTGTGGCT | 0.27 |
| TCGAACACGTGGTGTG | -0.05 |
| TGTTTCACGTGCCGCT | 0.25 |
| AGTACCACGTGTTGGA | -0.07 |
| TAAAGCACGTGTATTA | -0.07 |

| Sequence | relative binding free energy [kcal/mol] |
| --- | --- |
| TTTTGCACGTGGGGTA | -0.14 |
| AGGCACACGTGTTGGA | 0.16 |
| TCAGTCACGTGTAATT | 0.22 |
| CGATGCACGTGGGTAA | -0.17 |
| TTTATCACGTGAAATA | 0.36 |
| TATGGCACGTGTGCTC | -0.06 |
| TGTAGCACGTGTAGTG | 0 |
| GTAAGCACGTGTTGTG | -0.03 |
| TGTTTCACGTGAAAAA | 0.49 |
| AGGTGCACGTGAAAGG | 0.12 |
| TGGGTCACGTGTTTGG | 0.14 |
| ATTTGCACGTGTGAGC | 0.04 |
| GTCAACACGTGAGTGG | 0.18 |
| AGTGCCACGTGTTAGT | -0.06 |
| GGGTGCACGTGTGCTG | 0.04 |
| ACATTCACGTGGGGCT | 0.2 |
| AATTTCACGTGGCGTG | 0.18 |
| GTGTGCACGTGGACGG | -0.01 |
| TGCGGCACGTGAATGG | 0.15 |
| GGTATCACGTGCTTTG | 0.08 |
| AGAGTCACGTGATTAA | 0.32 |
